The values that follow come from a compilation of properties of binary mixtures (doi:10.1016/j.dib.2018.04.127).

This data set can be described thus: xn = mol fraction of the nth substance listed. The settings on record: 303.15 K, 100 kPa.

The structures appear in SMILES notation. The densities may have been worked out from excess volumes.

In general, mass density refers to the mass of a sample divided by its volume. For `CCCC(=O)OC(C)CCC` (stereo unspecified) + CCCC[n+]1ccn(C)c1.COS(=O)(=O)[O-], the mass density was 1202.1 kg/m3 (x1 = 0.0099); 1183.8 kg/m3 (x2 = 0.8986); 1187.8 kg/m3 (x2 = 0.9199); 1195.8 kg/m3 (x2 = 0.9602); 1199.7 kg/m3 (x2 = 0.98).

The molecule `CCCC(=O)OC(C)CCC` (stereo unspecified) + CC(=O)[O-].CC[n+]1ccn(C)c1 gave a mass density (x2 = 0.6131) of 1061.8 kg/m3; a mass density (x2 = 0.7001) of 1068.8 kg/m3; a mass density (x2 = 0.7502) of 1073 kg/m3; a mass density (x2 = 0.7993) of 1077 kg/m3; a mass density (x2 = 0.8498) of 1081.5 kg/m3; a mass density (x2 = 0.9501) of 1090 kg/m3.
